How the values were obtained:
platelet aggregation = experiment: Platelet aggregometry with submaximal ADP stimulation in human volunteers
Protocol: (§1) In further works, human volunteer subject were enrolled in the following study. Individuals were examined at baseline for plasma TMAO and blood drawn for platelet aggregometry studies with submaximal ADP stimulation. Subjects were examined both naïve to aspirin, and then at different time after taking chronic aspirin (81 mg daily) for at least a month. […] After washout period of at least 4 months with no choline supplement, subjects were placed on ASA daily (81 mg) and after a month of ASA, the baseline TMAO level and platelet aggregmetry measure monitored. Then, choline supplementation daily was again resumed.
(§2) Choline supplement was used in subjects (choline bitartrate, 2×500 mg/day=choline 2×205.7 mg/day), for 2 month period. Samples were collected at baseline and monthly blood were draw (1,2 months). Plasma levels of TMAO were measured and platelet aggregation in response to 5 uM ADP were measured.

microbial TMA lyase = experiment: TMA lyase activity of Proteus mirabilis (PM) lysate; format: biochemical
Protocol: Using PM lysate (PM that is lysed in a French press to break open the cell wall and release enzyme contents) as the enzyme source, the TMA lyase activity (TMA producing activity) was examined in incubations with either d9(trimethyl)choline as substrate, or […] (GPC) as substrate. […] A further examination of the impact of ASA on TMA lyase activity by PM lysate was undertaken. Three mg of PM lysate was incubated with 25 uM choline and 25 uM choline(d9) in 2 ml PBS at 37 C for 20 hours. In FIG. 7, the dotted lines at 81 mg and 320 mg ASA represent reported steady state plasma levels of aspirin reported at those doses in human subjects. […] In light of this, in some embodiments, enteric coated aspirin or aspirin derivatives that have delayed absorption may be employed to treat disease since they would dissolve in the intestines past the stomach, such that the level of ASA or derivative delivered to the gut lumen will be higher. There exist even longer delayed release formulations of medications that could also be used.

[1] = Plasma TMAO in human volunteers on choline supplementation, before and on chronic aspirin; format: in vivo; conditions: omnivores, ASA 81 mg daily for a month, then daily choline supplementation
Protocol: as §1, §2

SMILES | rise in platelet aggregation on choline diet (platelet aggregation; omnivores, ASA 81 mg daily for a month, then daily choline supplementation) | TMA lyase inhibition (microbial TMA lyase; PM lysate 3 mg, 25 uM choline + 25 uM choline(d9), 37 C, 20 hours, at plasma ASA levels anticipated for 320 mg dose) | TMA production from substrate (microbial TMA lyase; PM lysate, d9(trimethyl) GPC as substrate, physiological range of ASA) | rise in TMAO on choline diet [1] | platelet aggregation in response to 5 uM ADP (platelet aggregation; vegans, choline bitartrate 2x500 mg/day, 2 months)
CC(=O)Oc1ccccc1C(=O)O [ASA, acetylsalicylic acid] | blunted | approximately 40% | inhibited TMA production | blunted | –
C[N+](C)(C)CCO.O=C([O-])C(O)C(O)C(=O)O (centres unmarked) [choline bitartrate] | – | – | – | – | significant increase in platelet hyperresponsiveness

— patent US20160089386A1, “TREATING AND PREVENTING DISEASE WITH TMA AND TMAO LOWERING AGENTS” (The Cleveland Clinic Foundation, priority 2014, published 2016)
